{"source": "the supplement of paper PMC3334620", "note": "Over roughly 33,000 sequences, “E-score (-0.5 to 0.5)” has its median near -0.054; the highest 2% begin near 0.39. The list shows a part of the results.", "data": [{"molecular_target": "Ylr278c (UniProt Q05854)", "assay": "PBM E-score (8-mer binding enrichment) (E-score (-0.5 to 0.5)); higher = stronger / more preferred TF binding; most listed sequences are background and not binding sites", "conditions": "protein concentration: 200 nM; construct: GST-DNA-binding domain", "how_it_was_run": "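Bound GST-tagged yeast transcription factors, applied at about 100-200 nM to double-stranded universal all-10-mer Agilent arrays, were detected with fluorescent anti-GST. Scans were normalised with masliner. A modified Wilcoxon-Mann-Whitney statistic, the E-score, was assigned to each ungapped eight-base word pooled with its reverse complement by the Universal PBM Analysis Suite.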", "values": [{"sequence": "ATCACCTA", "PBM E-score": -0.271}, {"sequence": "TAAACAGA", "PBM E-score": -0.206}, {"sequence": "CTCAAGCA", "PBM E-score": -0.286}, {"sequence": "AATCATGC", "PBM E-score": -0.0275}, {"sequence": "CATTCTGC", "PBM E-score": 0.0374}, {"sequence": "AAGTGGAG", "PBM E-score": -0.0974}, {"sequence": "CACGACGA", "PBM E-score": -0.244}, {"sequence": "ATCCGTTC", "PBM E-score": 0.183}, {"sequence": "AATACAAT", "PBM E-score": -0.00114}, {"sequence": "AACGGTGA", "PBM E-score": -0.0213}, {"sequence": "CAAAACGA", "PBM E-score": -0.0347}, {"sequence": "ATGAGATC", "PBM E-score": -0.194}, {"sequence": "CAAATTAA", "PBM E-score": -0.0304}, {"sequence": "CGCGGTGC", "PBM E-score": 0.181}, {"sequence": "AGGGGAGG", "PBM E-score": 0.0252}, {"sequence": "ATCCACAT", "PBM E-score": -0.095}, {"sequence": "AAACAGTG", "PBM E-score": -0.126}, {"sequence": "CAACTTCG", "PBM E-score": 0.0798}, {"sequence": "CTTCCTGA", "PBM E-score": -0.0288}, {"sequence": "AGCGTCCA", "PBM E-score": -0.185}, {"sequence": "AATATTTG", "PBM E-score": -0.0419}, {"sequence": "CGATTGAC", "PBM E-score": -0.165}, {"sequence": "ATACGGGA", "PBM E-score": 0.133}, {"sequence": "ACCCGACA", "PBM E-score": 0.213}, {"sequence": "CCTATATA", "PBM E-score": 0.00168}, {"sequence": "CAAGCTAA", "PBM E-score": -0.23}, {"sequence": "ACGCCAGA", "PBM E-score": -0.13}, {"sequence": "AGACTCCG", "PBM E-score": 0.418}, {"sequence": "GATTGCGA", "PBM E-score": 0.159}, {"sequence": "CATATCAG", "PBM E-score": -0.131}, {"sequence": "CGGTTGAC", "PBM E-score": 0.145}, {"sequence": "AGATTCTG", "PBM E-score": -0.239}, {"sequence": "CGTAAAGA", "PBM E-score": -0.197}, {"sequence": "CAGACCCA", "PBM E-score": -0.233}, {"sequence": "CTGCTAGA", "PBM E-score": -0.0591}, {"sequence": "GCGTCCTA", "PBM E-score": -0.192}, {"sequence": "CCCGGCCG", "PBM E-score": 0.354}, {"sequence": "CATACATC", "PBM E-score": -0.0121}, {"sequence": "GGGTACCC", "PBM E-score": 0.0629}, {"sequence": "CAAAGCCA", "PBM E-score": -0.229}, {"sequence": "AATACTGG", "PBM E-score": -0.112}, {"sequence": "CCCAGCAC", "PBM E-score": -0.0751}, {"sequence": "ACCAGGCC", "PBM E-score": -0.116}, {"sequence": "TAAATCGA", "PBM E-score": -0.162}, {"sequence": "CAGTGGGG", "PBM E-score": -0.204}, {"sequence": "GAGGAAAC", "PBM E-score": 0.0855}, {"sequence": "CCCGCTAA", "PBM E-score": 0.101}, {"sequence": "AACAGATA", "PBM E-score": -0.017}, {"sequence": "ACCTATAA", "PBM E-score": -0.105}, {"sequence": "CTGCTGTC", "PBM E-score": -0.0508}, {"sequence": "ATCGAGTC", "PBM E-score": -0.157}, {"sequence": "GACTTACA", "PBM E-score": -0.137}, {"sequence": "CACTAGTA", "PBM E-score": -0.104}, {"sequence": "GATGCCTA", "PBM E-score": -0.246}, {"sequence": "GCGGTGCC", "PBM E-score": 0.15}, {"sequence": "GATGCCAC", "PBM E-score": -0.128}, {"sequence": "AGTTTCGC", "PBM E-score": -0.0287}, {"sequence": "ACCTTAAC", "PBM E-score": -0.0432}, {"sequence": "GGTGTATA", "PBM E-score": -0.146}, {"sequence": "AACCGTCC", "PBM E-score": 0.0297}, {"sequence": "ATTAAGAG", "PBM E-score": -0.0169}, {"sequence": "ACCAGCCC", "PBM E-score": 0.191}, {"sequence": "CACCACAC", "PBM E-score": -0.035}, {"sequence": "CGTGACAG", "PBM E-score": -0.0898}, {"sequence": "ATCCGACA", "PBM E-score": 0.382}, {"sequence": "AGCGCGGG", "PBM E-score": 0.204}, {"sequence": "CCGAAGCA", "PBM E-score": 0.104}, {"sequence": "CAACATTG", "PBM E-score": -0.0224}, {"sequence": "CATGTAGA", "PBM E-score": -0.012}, {"sequence": "GCTGGATA", "PBM E-score": -0.184}, {"sequence": "ATCTGCAC", "PBM E-score": -0.0743}, {"sequence": "GACTTTCC", "PBM E-score": 0.137}, {"sequence": "AGACGATG", "PBM E-score": -0.00363}, {"sequence": "GCCCAGGA", "PBM E-score": -0.0781}, {"sequence": "TAACTATA", "PBM E-score": -0.202}, {"sequence": "GCGGCAGC", "PBM E-score": -0.00346}, {"sequence": "GACTAGCA", "PBM E-score": -0.0966}, {"sequence": "AATCGAAT", "PBM E-score": 0.127}, {"sequence": "ACGCTGTA", "PBM E-score": -0.0084}, {"sequence": "CTTTAGAA", "PBM E-score": 0.0574}, {"sequence": "ACGTAGGA", "PBM E-score": -0.159}, {"sequence": "CTGCCGCA", "PBM E-score": -0.0562}, {"sequence": "CTATAATC", "PBM E-score": -0.119}, {"sequence": "AGCGCCGC", "PBM E-score": 0.211}, {"sequence": "CACCCGAA", "PBM E-score": 0.134}, {"sequence": "AATGCCGA", "PBM E-score": 0.392}, {"sequence": "GTCGTCGA", "PBM E-score": -0.121}, {"sequence": "AGCAGAGA", "PBM E-score": -0.224}, {"sequence": "GGCGAAAA", "PBM E-score": 0.135}, {"sequence": "ACGAAATG", "PBM E-score": -0.201}, {"sequence": "GCATTTAA", "PBM E-score": 0.0391}, {"sequence": "CCATCGCG", "PBM E-score": 0.231}, {"sequence": "GAAGTCCA", "PBM E-score": -0.0243}, {"sequence": "AGAAGGCA", "PBM E-score": -0.0837}, {"sequence": "CCGAGCAC", "PBM E-score": 0.182}, {"sequence": "AGTACGCC", "PBM E-score": -0.044}, {"sequence": "ACGGTCTC", "PBM E-score": 0.0504}, {"sequence": "ATTAGTCG", "PBM E-score": 0.038}, {"sequence": "CACATCAG", "PBM E-score": -0.111}, {"sequence": "GGGTAGTA", "PBM E-score": -0.0481}, {"sequence": "CGGCTTAG", "PBM E-score": 0.14}, {"sequence": "ACTCCCTA", "PBM E-score": -0.269}, {"sequence": "CCTAACAC", "PBM E-score": 0.0521}, {"sequence": "AAACTTCT", "PBM E-score": 0.0669}, {"sequence": "GGCAAGCC", "PBM E-score": -0.0477}, {"sequence": "AATTTGTG", "PBM E-score": 0.137}, {"sequence": "AAGGACAA", "PBM E-score": -0.0544}, {"sequence": "CCGGCTAA", "PBM E-score": 0.313}, {"sequence": "AACGCACT", "PBM E-score": -0.0337}, {"sequence": "CTGGGACA", "PBM E-score": -0.185}, {"sequence": "TAGCGCAA", "PBM E-score": 0.0105}, {"sequence": "GCGTATTA", "PBM E-score": -0.0181}, {"sequence": "GTAGCGCA", "PBM E-score": -0.0535}, {"sequence": "AATTACAA", "PBM E-score": -0.192}, {"sequence": "AGATTTAT", "PBM E-score": 0.135}, {"sequence": "AACATAAA", "PBM E-score": -0.213}, {"sequence": "GGGGACGA", "PBM E-score": -0.0275}, {"sequence": "ACAACACG", "PBM E-score": -0.066}, {"sequence": "TTAGGCAA", "PBM E-score": -0.229}, {"sequence": "CCATACGG", "PBM E-score": 0.125}, {"sequence": "ACTAGAGG", "PBM E-score": -0.185}, {"sequence": "GGGAGCGA", "PBM E-score": -0.116}, {"sequence": "GATCTAAA", "PBM E-score": 0.0142}, {"sequence": "ATCACTCA", "PBM E-score": -0.207}, {"sequence": "CCGAGTGA", "PBM E-score": 0.233}, {"sequence": "GATACTCA", "PBM E-score": 0.146}, {"sequence": "GACTCGCC", "PBM E-score": 0.0201}, {"sequence": "GGGATGCA", "PBM E-score": -0.0857}, {"sequence": "ACAATCTA", "PBM E-score": -0.187}, {"sequence": "CATCTGGG", "PBM E-score": -0.234}, {"sequence": "GCTTAGCC", "PBM E-score": 0.0388}, {"sequence": "CGCACACC", "PBM E-score": -0.0536}, {"sequence": "ACGGCTTA", "PBM E-score": 0.0899}, {"sequence": "AGACACGA", "PBM E-score": -0.175}, {"sequence": "ATCTACCG", "PBM E-score": 0.143}, {"sequence": "TGACTGAA", "PBM E-score": -0.26}, {"sequence": "AACTAGAG", "PBM E-score": -0.307}, {"sequence": "AGCTCCTA", "PBM E-score": -0.0358}, {"sequence": "CTATGCGC", "PBM E-score": 0.0449}, {"sequence": "CAACCTTC", "PBM E-score": -0.0706}, {"sequence": "AGTAAGCA", "PBM E-score": -0.281}, {"sequence": "GCTTTTCC", "PBM E-score": 0.244}, {"sequence": "TCTCGCAA", "PBM E-score": -0.0672}, {"sequence": "GAGCATCA", "PBM E-score": -0.141}, {"sequence": "TCTGATCA", "PBM E-score": -0.102}, {"sequence": "GAGGGCTA", "PBM E-score": -0.166}, {"sequence": "GAGTGTTA", "PBM E-score": -0.0184}, {"sequence": "ACTTTGAT", "PBM E-score": -0.0974}, {"sequence": "AAAGTACA", "PBM E-score": -0.156}, {"sequence": "AGCCGTCC", "PBM E-score": 0.155}, {"sequence": "ACATCCAC", "PBM E-score": -0.0863}, {"sequence": "AAAAATAG", "PBM E-score": 0.0524}, {"sequence": "AATGGTAC", "PBM E-score": -0.223}, {"sequence": "GGTGCTGA", "PBM E-score": -0.0264}, {"sequence": "CCGGGTCG", "PBM E-score": 0.313}, {"sequence": "CGGCAAGA", "PBM E-score": 0.175}, {"sequence": "ACGGTGCT", "PBM E-score": -0.0789}, {"sequence": "GGCACTAA", "PBM E-score": 0.0202}, {"sequence": "ACCGGATG", "PBM E-score": 0.279}, {"sequence": "AGGATGAT", "PBM E-score": -0.149}, {"sequence": "CGACGCGA", "PBM E-score": -0.00305}, {"sequence": "GGCATCCC", "PBM E-score": 0.00309}, {"sequence": "GGCTCAGA", "PBM E-score": -0.0959}, {"sequence": "CATCCAGA", "PBM E-score": -0.226}, {"sequence": "CCACACAA", "PBM E-score": -0.186}, {"sequence": "CGTGGTGA", "PBM E-score": -0.0724}, {"sequence": "ACTAGCAA", "PBM E-score": -0.104}, {"sequence": "CGGCGCGA", "PBM E-score": 0.295}, {"sequence": "AGCCCACT", "PBM E-score": -0.156}, {"sequence": "ACCCGATA", "PBM E-score": 0.141}, {"sequence": "CTTGTAGC", "PBM E-score": -0.0687}, {"sequence": "ACGCGGAC", "PBM E-score": 0.342}]}]}
